Measurements taken from PubChem BioAssay (NCI).
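A five-concentration, 48-hour dose response in 96-well plates underlies each endpoint, interpolated linearly between surrounding concentrations. At the GI50, growth is halved. Definition used: TGI = concentration required for complete inhibition of growth.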

Test system: NCI-H322M lung
Assay: growth of human tumour cells (NCI), 48 h

Q: Which results are given for `Cc1ccc2ccc3ccc(C)nc3c2n1.Cc1ccc2ccc3ccc(C)nc3c2n1.Oc1c(Cl)cc(Cl)c2ccc(CN3CCCCC3)nc12.[Ru]`?
A: GI50: 0.539 µM; TGI: 3.23 µM
